Source: article PMC4460075, “ULK2 Ser 1027 Phosphorylation by PKA Regulates Its Nuclear Localization Occurring through Karyopherin Beta 2 Recognition of a PY-NLS Motif” (PLoS ONE, 2015)
Results are given in words; binding and its absence hold for the method and conditions named. In cells and extracts the contact can be indirect. Some results given as binding are weak or reduced against the parent protein; the word gives no strength. For some of these results: Tags and fused reporters may be left off the sequences shown.

Amino acid sequences for entries named in this document (tags omitted).
UniProt Q92973: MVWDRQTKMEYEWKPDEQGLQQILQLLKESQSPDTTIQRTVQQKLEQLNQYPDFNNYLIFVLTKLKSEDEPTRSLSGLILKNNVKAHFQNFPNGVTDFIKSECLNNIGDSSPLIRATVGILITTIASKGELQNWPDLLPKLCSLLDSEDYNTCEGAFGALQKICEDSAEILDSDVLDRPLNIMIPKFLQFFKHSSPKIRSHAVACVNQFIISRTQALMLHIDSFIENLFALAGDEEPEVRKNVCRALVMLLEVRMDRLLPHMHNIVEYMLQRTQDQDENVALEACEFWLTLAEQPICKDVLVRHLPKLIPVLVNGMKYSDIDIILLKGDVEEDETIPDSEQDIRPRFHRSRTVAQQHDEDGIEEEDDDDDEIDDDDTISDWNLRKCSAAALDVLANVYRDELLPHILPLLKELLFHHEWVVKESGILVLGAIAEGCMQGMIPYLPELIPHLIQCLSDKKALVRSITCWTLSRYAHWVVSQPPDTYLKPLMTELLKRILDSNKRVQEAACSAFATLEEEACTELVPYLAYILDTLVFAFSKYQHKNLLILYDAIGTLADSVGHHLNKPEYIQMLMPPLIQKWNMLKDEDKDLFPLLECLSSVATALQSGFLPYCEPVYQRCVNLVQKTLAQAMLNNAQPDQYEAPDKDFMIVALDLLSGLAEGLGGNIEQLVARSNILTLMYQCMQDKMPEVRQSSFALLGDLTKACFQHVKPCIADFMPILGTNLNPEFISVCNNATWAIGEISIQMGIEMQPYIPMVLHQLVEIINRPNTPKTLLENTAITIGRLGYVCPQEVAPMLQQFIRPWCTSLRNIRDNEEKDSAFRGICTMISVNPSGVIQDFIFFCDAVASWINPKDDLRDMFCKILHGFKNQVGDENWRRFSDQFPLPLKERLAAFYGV

How the values were obtained:
[1] = target: karyopherin beta 2 (Kapβ2), endogenous (human (endogenous in HEK293)) (UniProt Q92973); assay: co-IP; endogenous proteins of HEK293 lysate; IP with anti-ULK2 and blot for Kapβ2, and IP with anti-Kapβ2 and blot for ULK2; Protein A-Sepharose; control IP with an unrelated anti-EGFP antibody
[2] = target: GST-Kapβ2 (pGEX-5X-1 Kapβ2 fusion protein) (UniProt Q92973); assay: pull-down; GST-Kapβ2 beads (purified from E. coli) with lysate of HEK293 cells transfected with EGFP-ULK2 WT, P242A or P794A; 2 hours at 4°C; blot for ULK2/EGFP; only the target purified

Binder	binding [1]	binding [2]
Uncoordinated 51-like kinase 2 (ULK2), endogenous (natural protein, human (endogenous in HEK293), UniProt Q8IYT8 1-1036, looked up) MEVVGDFEYSKRDLVGHGAFAVVFRGRHRQKTDWEVAIKSINKKNLSKSQILLGKEIKILKELQHENIVALYDVQELPNSVFLVMEYCNGGDLADYLQAKGTLSEDTIRVFLHQIAAAMRILHSKGIIHRDLKPQNILLSYANRRKSSVSGIRIKIADFGFARYLHSNMMAATLCGSPMYMAPEVIMSQHYDAKADLWSIGTVIYQCLVGKPPFQANSPQDLRMFYEKNRSLMPSIPRETSPYLANLLLGLLQRNQKDRMDFEAFFSHPFLEQGPVKKSCPVPVPMYSGSVSGSSCGSSPSCRFASPPSLPDMQHIQEENLSSPPLGPPNYLQVSKDSASTSSKNSSCDTDDFVLVPHNISSDHSCDMPVGTAGRRASNEFLVCGGQCQPTVSPHSETAPIPVPTQIRNYQRIEQNLTSTASSGTNVHGSPRSAVVRRSNTSPMGFLRPGSCSPVPADTAQTVGRRLSTGSSRPYSPSPLVGTIPEQFSQCCCGHPQGHDSRSRNSSGSPVPQAQSPQSLLSGARLQSAPTLTDIYQNKQKLRKQHSDPVCPSHTGAGYSYSPQPSRPGSLGTSPTKHLGSSPRSSDWFFKTPLPTIIGSPTKTTAPFKIPKTQASSNLLALVTRHGPAEEQSKDGNEPRECAHCLLVQGSERQRAEQQSKAVFGRSVSTGKLSDQQGKTPICRHQGSTDSLNTERPMDIAPAGACGGVLAPPAGTAASSKAVLFTVGSPPHSAAAPTCTHMFLRTRTTSVGPSNSGGSLCAMSGRVCVGSPPGPGFGSSPPGAEAAPSLRYVPYGASPPSLEGLITFEAPELPEETLMEREHTDTLRHLNVMLMFTECVLDLTAMRGGNPELCTSAVSLYQIQESVVVDQISQLSKDWGRVEQLVLYMKAAQLLAASLHLAKAQIKSGKLSPSTAVKQVVKNLNERYKFCITMCKKLTEKLNRFFSDKQRFIDEINSVTAEKLIYNCAVEMVQSAALDEMFQQTEDIVYRYHKAALLLEGLSRILQDPADIENVHKYKCSIERRLSALCHSTATV	binds	
EGFP-ULK2 WT (natural protein, human, UniProt Q8IYT8 1-1036, looked up) MEVVGDFEYSKRDLVGHGAFAVVFRGRHRQKTDWEVAIKSINKKNLSKSQILLGKEIKILKELQHENIVALYDVQELPNSVFLVMEYCNGGDLADYLQAKGTLSEDTIRVFLHQIAAAMRILHSKGIIHRDLKPQNILLSYANRRKSSVSGIRIKIADFGFARYLHSNMMAATLCGSPMYMAPEVIMSQHYDAKADLWSIGTVIYQCLVGKPPFQANSPQDLRMFYEKNRSLMPSIPRETSPYLANLLLGLLQRNQKDRMDFEAFFSHPFLEQGPVKKSCPVPVPMYSGSVSGSSCGSSPSCRFASPPSLPDMQHIQEENLSSPPLGPPNYLQVSKDSASTSSKNSSCDTDDFVLVPHNISSDHSCDMPVGTAGRRASNEFLVCGGQCQPTVSPHSETAPIPVPTQIRNYQRIEQNLTSTASSGTNVHGSPRSAVVRRSNTSPMGFLRPGSCSPVPADTAQTVGRRLSTGSSRPYSPSPLVGTIPEQFSQCCCGHPQGHDSRSRNSSGSPVPQAQSPQSLLSGARLQSAPTLTDIYQNKQKLRKQHSDPVCPSHTGAGYSYSPQPSRPGSLGTSPTKHLGSSPRSSDWFFKTPLPTIIGSPTKTTAPFKIPKTQASSNLLALVTRHGPAEEQSKDGNEPRECAHCLLVQGSERQRAEQQSKAVFGRSVSTGKLSDQQGKTPICRHQGSTDSLNTERPMDIAPAGACGGVLAPPAGTAASSKAVLFTVGSPPHSAAAPTCTHMFLRTRTTSVGPSNSGGSLCAMSGRVCVGSPPGPGFGSSPPGAEAAPSLRYVPYGASPPSLEGLITFEAPELPEETLMEREHTDTLRHLNVMLMFTECVLDLTAMRGGNPELCTSAVSLYQIQESVVVDQISQLSKDWGRVEQLVLYMKAAQLLAASLHLAKAQIKSGKLSPSTAVKQVVKNLNERYKFCITMCKKLTEKLNRFFSDKQRFIDEINSVTAEKLIYNCAVEMVQSAALDEMFQQTEDIVYRYHKAALLLEGLSRILQDPADIENVHKYKCSIERRLSALCHSTATV		binds
EGFP-ULK2 P242A mutant (natural protein, human, UniProt Q8IYT8 1-1036, looked up) MEVVGDFEYSKRDLVGHGAFAVVFRGRHRQKTDWEVAIKSINKKNLSKSQILLGKEIKILKELQHENIVALYDVQELPNSVFLVMEYCNGGDLADYLQAKGTLSEDTIRVFLHQIAAAMRILHSKGIIHRDLKPQNILLSYANRRKSSVSGIRIKIADFGFARYLHSNMMAATLCGSPMYMAPEVIMSQHYDAKADLWSIGTVIYQCLVGKPPFQANSPQDLRMFYEKNRSLMPSIPRETSAYLANLLLGLLQRNQKDRMDFEAFFSHPFLEQGPVKKSCPVPVPMYSGSVSGSSCGSSPSCRFASPPSLPDMQHIQEENLSSPPLGPPNYLQVSKDSASTSSKNSSCDTDDFVLVPHNISSDHSCDMPVGTAGRRASNEFLVCGGQCQPTVSPHSETAPIPVPTQIRNYQRIEQNLTSTASSGTNVHGSPRSAVVRRSNTSPMGFLRPGSCSPVPADTAQTVGRRLSTGSSRPYSPSPLVGTIPEQFSQCCCGHPQGHDSRSRNSSGSPVPQAQSPQSLLSGARLQSAPTLTDIYQNKQKLRKQHSDPVCPSHTGAGYSYSPQPSRPGSLGTSPTKHLGSSPRSSDWFFKTPLPTIIGSPTKTTAPFKIPKTQASSNLLALVTRHGPAEEQSKDGNEPRECAHCLLVQGSERQRAEQQSKAVFGRSVSTGKLSDQQGKTPICRHQGSTDSLNTERPMDIAPAGACGGVLAPPAGTAASSKAVLFTVGSPPHSAAAPTCTHMFLRTRTTSVGPSNSGGSLCAMSGRVCVGSPPGPGFGSSPPGAEAAPSLRYVPYGASPPSLEGLITFEAPELPEETLMEREHTDTLRHLNVMLMFTECVLDLTAMRGGNPELCTSAVSLYQIQESVVVDQISQLSKDWGRVEQLVLYMKAAQLLAASLHLAKAQIKSGKLSPSTAVKQVVKNLNERYKFCITMCKKLTEKLNRFFSDKQRFIDEINSVTAEKLIYNCAVEMVQSAALDEMFQQTEDIVYRYHKAALLLEGLSRILQDPADIENVHKYKCSIERRLSALCHSTATV		binds
EGFP-ULK2 PY-NLS mutant (P794A) (natural protein, human, UniProt Q8IYT8 1-1036, looked up) MEVVGDFEYSKRDLVGHGAFAVVFRGRHRQKTDWEVAIKSINKKNLSKSQILLGKEIKILKELQHENIVALYDVQELPNSVFLVMEYCNGGDLADYLQAKGTLSEDTIRVFLHQIAAAMRILHSKGIIHRDLKPQNILLSYANRRKSSVSGIRIKIADFGFARYLHSNMMAATLCGSPMYMAPEVIMSQHYDAKADLWSIGTVIYQCLVGKPPFQANSPQDLRMFYEKNRSLMPSIPRETSPYLANLLLGLLQRNQKDRMDFEAFFSHPFLEQGPVKKSCPVPVPMYSGSVSGSSCGSSPSCRFASPPSLPDMQHIQEENLSSPPLGPPNYLQVSKDSASTSSKNSSCDTDDFVLVPHNISSDHSCDMPVGTAGRRASNEFLVCGGQCQPTVSPHSETAPIPVPTQIRNYQRIEQNLTSTASSGTNVHGSPRSAVVRRSNTSPMGFLRPGSCSPVPADTAQTVGRRLSTGSSRPYSPSPLVGTIPEQFSQCCCGHPQGHDSRSRNSSGSPVPQAQSPQSLLSGARLQSAPTLTDIYQNKQKLRKQHSDPVCPSHTGAGYSYSPQPSRPGSLGTSPTKHLGSSPRSSDWFFKTPLPTIIGSPTKTTAPFKIPKTQASSNLLALVTRHGPAEEQSKDGNEPRECAHCLLVQGSERQRAEQQSKAVFGRSVSTGKLSDQQGKTPICRHQGSTDSLNTERPMDIAPAGACGGVLAPPAGTAASSKAVLFTVGSPPHSAAAPTCTHMFLRTRTTSVGPSNSGGSLCAMSGRVCVGSPPGPGFGSSPPGAEAAPSLRYVAYGASPPSLEGLITFEAPELPEETLMEREHTDTLRHLNVMLMFTECVLDLTAMRGGNPELCTSAVSLYQIQESVVVDQISQLSKDWGRVEQLVLYMKAAQLLAASLHLAKAQIKSGKLSPSTAVKQVVKNLNERYKFCITMCKKLTEKLNRFFSDKQRFIDEINSVTAEKLIYNCAVEMVQSAALDEMFQQTEDIVYRYHKAALLLEGLSRILQDPADIENVHKYKCSIERRLSALCHSTATV		no binding
